Publication PMC6919601, “Identification of Plasmodium dipeptidyl aminopeptidase allosteric inhibitors by high throughput screening” (PLoS ONE, 2019)
Among all 110,000 compounds or so, about 230 (0.21%) showed an effect of 50% or more. The list shows a part of the results.

target: DPAP1 (Plasmodium falciparum, UniProt Q8IIJ9); assay: primary screen, percent inhibition; read by cleavage of a fluorogenic dipeptide substrate; higher = more effect of the substance; parameters: species or system P. falciparum D10 trophozoite lysates; single well
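Further: 30 min substrate incubation versus DMSO and 10 µM JCP410 controls.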

Chain of DPAP1 (Q8IIJ9 whole entry, looked up): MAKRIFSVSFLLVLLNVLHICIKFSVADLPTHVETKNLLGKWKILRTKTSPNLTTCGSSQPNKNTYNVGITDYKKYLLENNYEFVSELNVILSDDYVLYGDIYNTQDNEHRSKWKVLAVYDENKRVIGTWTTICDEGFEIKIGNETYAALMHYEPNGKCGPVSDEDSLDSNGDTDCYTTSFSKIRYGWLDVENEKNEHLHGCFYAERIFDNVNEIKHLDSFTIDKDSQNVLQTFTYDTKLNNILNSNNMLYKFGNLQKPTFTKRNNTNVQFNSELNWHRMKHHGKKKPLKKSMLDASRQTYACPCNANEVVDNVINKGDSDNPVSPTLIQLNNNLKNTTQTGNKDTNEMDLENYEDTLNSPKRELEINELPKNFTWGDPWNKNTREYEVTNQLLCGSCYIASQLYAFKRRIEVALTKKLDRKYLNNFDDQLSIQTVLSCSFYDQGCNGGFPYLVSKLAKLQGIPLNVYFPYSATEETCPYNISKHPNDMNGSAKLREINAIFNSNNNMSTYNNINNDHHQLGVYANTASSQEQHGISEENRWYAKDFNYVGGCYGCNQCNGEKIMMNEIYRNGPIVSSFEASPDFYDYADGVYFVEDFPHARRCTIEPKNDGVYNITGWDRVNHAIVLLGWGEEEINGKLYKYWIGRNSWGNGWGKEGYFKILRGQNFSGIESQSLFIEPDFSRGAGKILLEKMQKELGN

Row | Compound | % Inhibition @ 10 uM [%]
1 | O=C(Nc1cccc(O)c1)c1ccc(C(=O)c2ccccc2)o1 | -4.89
2 | CCCc1[nH]nc2c1C(c1ccccc1Cl)C(C#N)=C(N)O2 (stereo not drawn) | 4.39
3 | O=c1oc2c([N+](=O)[O-])cccc2cc1-c1nc(-c2ccc(Cl)c(Cl)c2)cs1 | 4.4
4 | CCOCCCNC(=O)c1ccc(-c2nc(CS(=O)c3ccccc3)c(C)o2)cc1 (stereo not drawn) | -7.48
5 | Cc1ccc(S(=O)(=O)N2CCSC2c2ccccc2)cc1 (stereo not drawn) | -4.18
6 | Cc1ccccc1C(=O)c1cccn1CC(=O)NC1CCC(C)CC1 (stereo not drawn) | -2.25
7 | Cn1ncc(Cl)c1C(=O)Nc1ccc(CN2CCCCC2)cc1 | -0.898
8 | Cc1ccsc1/C=C1\SC(N2CCCCC2)=NC1=O | 0.408
9 | CC(C)Cn1c2c(c(=O)[nH]c1=O)C(C(F)(F)F)(C(F)(F)F)NC(CCC1CCCCC1)=N2 | 3.87
10 | COc1ccc(OCc2nc(C#N)c(NCc3ccc(F)cc3)o2)cc1 | -3.16
11 | O=C(c1nn2c(C(F)(F)F)cc(-c3cccs3)nc2c1Cl)N1CCCCCC1 | -5.92
12 | CCN(CC)c1ccc(NC(=O)COc2ccc(OC)cc2)cc1 | -3.76
13 | Cc1cc(C(=O)NCc2cccs2)n(-c2ccccc2)n1 | -0.971
14 | COc1cc(C2C(C#N)=C(N)N(c3nc[nH]n3)C3=C2C(=O)CC(C)(C)C3)cc(OC)c1OC (stereo not drawn) | -0.105
15 | CCOc1cc(C2CC(=O)NC3=C2C(=O)CC(c2ccc(OC)c(OC)c2)C3)ccc1O (stereo not drawn) | 4.23
16 | CCn1ncc(Br)c1C(=O)Nc1ccn(C23CC4CC(CC(C4)C2)C3)n1 | 5.07
17 | COc1cc(CN2CCC3(C=Cc4ccccc43)CC2)cc(OC)c1 | -1.64
18 | Cc1csc(NC(=O)CCc2c(C)nc3nc(CNC(=O)OC(C)(C)C)nn3c2C)n1 | -0.659
19 | COc1cc2c(cc1OC)CN(S(=O)(=O)c1ccc(Oc3ccccc3OC)cc1)CC2 | -5.46
20 | Cc1ccc(S(=O)(=O)N2CCOCC2)cc1C(=O)Nc1ccccc1 | 9.6
21 | Cc1cccc2c1NC1(CCCC1)CC2C (stereo not drawn) | 4.33
22 | Cc1ccc(CNC(=O)COc2ccc(Cl)cc2Cl)cc1 | -1.12
23 | O=C(O)c1ccc(Cl)c(-c2ccc(/C=C3\SC(=O)N(CC(=O)N4CCOCC4)C3=O)o2)c1 | -1.22
24 | N#CC1=C(N)Oc2[nH]nc(-c3ccccn3)c2C1c1ccc(O)cc1 (stereo not drawn) | 2.67
25 | CCN1CCC(N2CC3(C)CC2CC(C)(C)C3)CC1 (stereo not drawn) | -0.0953

Row | Compound | % Inhibition @ 10 uM [%]
26 | O=C(c1ccccc1)N1c2ccccc2-c2ccccc2S1(=O)=O | 0.83
27 | COC(=O)c1sc(N2C(=O)c3oc4cc(C)c(C)cc4c(=O)c3C2c2ccc(O)cc2)nc1C (stereo not drawn) | 0.415
28 | CCOc1ccc2nc(Cl)c(C3CC(c4ccc(C)cc4)=NN3S(C)(=O)=O)cc2c1 (stereo not drawn) | 7.78
29 | COc1cc(CN2CCC(O)CC2)cc(Br)c1O | 2.47
30 | CC(C)(C)NS(=O)(=O)c1ccc(NS(=O)(=O)c2ccc(Br)cc2)cc1 | -0.185
31 | Fc1ccc(-c2noc3ncnc(NCCC4=CCCCC4)c23)cc1 | 8.65
32 | O=C(c1ccc(Cl)cc1Cl)N1CCN(c2ccc3c(c2)OCO3)CC1 | 4.88
33 | O=c1cccc2n1C[C@H]1C[C@@H]2CN(Cc2c(Cl)cccc2Cl)C1 | 3.42
34 | COc1ccccc1-c1nc2c(c(SCC(=O)N3CCCCC3)n1)Cc1c(CO)cnc(C)c1O2 | 2.75
35 | CCN1C(=O)/C(=C\c2cc(C)n(-c3ccccc3C(=O)OC)c2C)C(C(=O)OC)=C1C | 1.63
36 | NC(=O)C1CCN(C/C=C/c2ccccc2)CC1 | 5.03
37 | O=C1CCCC2=C1C(c1ccccc1C(F)(F)F)C1=C(CCCC1=O)O2 | -0.305
38 | CC(=O)N1CCN(Cc2ccccc2C(F)(F)F)CC1 | 1.88
39 | CSc1cccc(-n2nnc(-c3nsc(NC(=O)c4ccc(C)c(C)c4)n3)c2C)c1 | 4.97
40 | CCCCN(C)C(=O)NCc1noc2ccc(C)cc12 | 3.51
41 | COc1ccc(N(CC(=O)NC2CC2)S(=O)(=O)c2ccccc2)cc1 | 2.42
42 | Cc1nn(CC(=O)NCCC2=CCCCC2)c(=O)c2cc3cc(F)ccc3n12 | -5.32
43 | Cc1ccc2nc3c(cc(C#N)c(=N)n3C(C)C)c(=O)n2c1 | -8.38
44 | Cc1cc(/C=C2/C(=N)N3C(=NC2=O)SN=C3S(=O)(=O)C(C)C)c(C)n1Cc1ccccc1 | -7.21
45 | Cc1c(Cl)c(C(F)(F)F)nn1CC(=O)N1CCSCC1 | -1.2
46 | CC1CN(C(=O)c2ccc3c(c2)OCO3)OC(c2cccs2)O1 (stereo not drawn) | 2.36
47 | Cc1ccc(OCC(=O)N2CCN(c3ccc(F)cc3)CC2)cc1C | -3.92
48 | CCCOc1ccc2nc(C)c(CCC)c(S)c2c1 | 0.0538
49 | COCCN1C(=O)c2[nH]nc(-c3cc(C)ccc3O)c2C1c1ccc(OC)c(OC)c1 (stereo not drawn) | 2.21
50 | COc1ccc(CNCc2cc(OC)cc(OC)c2)cc1 | -4.16

Row | Compound | % Inhibition @ 10 uM [%]
51 | CC(C)CNc1oc(/C=C/c2cccs2)nc1C#N | 4.83
52 | Cc1ccc(/C=C2/NC(=O)N(Cc3ccc(F)cc3)C2=O)o1 | 3.48
53 | CC(NC(=O)C(=O)NC(C)C1COc2ccccc2O1)C1COc2ccccc2O1 (stereo not drawn) | -1.06
54 | CCC(=O)Nc1nc2nc(C)c(Cc3ccccc3)c(O)n2n1 | 3.66
55 | C=CCSC1=C(C#N)C(c2ccccc2)CC(=O)N1 (stereo not drawn) | -5.79
56 | Cc1ccc(CCNC(=O)COc2ccc3c(c2)C(=O)CC(C)(C)O3)cc1 | -4.97
57 | Cn1c(=O)c2c(nc(CN3CCOCC3)n2Cc2ccc(F)cc2)n(C)c1=O | 1.23
58 | Cc1ccc(S(=O)(=O)N(CC(=O)N2CCN(Cc3ccccc3)CC2)c2ccccc2F)cc1 | -1.59
59 | CCCn1c2ccccc2c2cnn(CC(=O)NCCc3c(C)noc3C)c(=O)c21 | 1.43
60 | N#CC1=C(N)Oc2[nH]nc(-c3ccccn3)c2C1c1ccncc1 (stereo not drawn) | -1.98
61 | COC(=O)c1ccc(/C=c2\sc3nc4cc(C)c(C)cc4n3c2=O)cc1 | 10.9
62 | COc1ccc(C(=O)N2CC3(C)C4CCC3(C)C2(C#N)C4)cc1 (stereo not drawn) | 0.214
63 | CC1C2CC(CC2(O)C#Cc2ccccc2)C1(C)C (stereo not drawn) | -2.77
64 | Cc1c(Cc2ccccc2)sc(NC(=O)Nc2ccc(Cl)cc2)c1C(N)=O | -3.43
65 | CCc1ccc(C2CC(=O)N3CN(Cc4ccco4)CSC3=C2C#N)cc1 (stereo not drawn) | 33.6
66 | Cc1cc(C)nc(SCc2ccc(C#N)cc2Cl)n1 | -1.32
67 | COC(=O)CCC(=O)Nc1cccc(C(=O)N[C@@H](CC(C)C)C(=O)NCC#N)c1 | 6.4
68 | CCCN(CCC)S(=O)(=O)c1ccc(C)c([N+](=O)[O-])c1 | -6.46
69 | CCC(NC(=O)c1cc(C)oc1C)c1ccccc1 (stereo not drawn) | 8.22
70 | O=C(CCc1nc2cccnc2n1-c1ccccc1)NCc1cccs1 | -1.08
71 | CCc1ccc(-c2[nH]nc3nc(-c4cccc(OC)c4O)cc(C(=O)O)c23)cc1 | 5.88
72 | Cc1ccc(CNc2ncnc3c2cnn3-c2cccc(C)c2)cc1 | 1.42
73 | CCCCNC(=O)CCn1nc(-c2ccccc2)c2ccccc2c1=O | -1.17
74 | Cc1ccc(-n2nc3c(c2NC(=O)Cc2ccc(F)cc2)CS(=O)(=O)C3)cc1 | -0.349
75 | O=C(O)C1CCCN1CP(=O)(O)O (stereo not drawn) | -3.69

Row | Compound | % Inhibition @ 10 uM [%]
76 | Cc1nc2nncn2c(NCc2ccccc2Cl)c1C | -1.02
77 | Cc1ccnc2nc(NC(=O)c3ccco3)nn12 | 3.66
78 | CN(CCC#N)S(=O)(=O)c1ccc2ncc(C(=O)NCCc3ccccc3)c(O)c2c1 | -1.68
79 | O=C(NCc1ccccn1)c1cc2c(Cl)ccc3c2n1CCO3 | 3.8
80 | CC1CCN(S(=O)(=O)N2CCCC(C(=O)NCc3ccc(Cl)cc3)C2)CC1 (stereo not drawn) | 2.75
81 | COc1ccc2c(CNCc3cccnc3)c(C(=O)O)n(Cc3ccccc3C)c2c1 | 5.94
82 | O=[N+]([O-])c1c(N2CCOCC2)ccc2nonc12 | -8.15
83 | O=C(Nc1ccc(Cl)cc1)c1cc2nc(C(F)F)cc(C(F)F)n2n1 | -5.13
84 | CCN(CC)CCCCC(C#N)c1ccccc1 (stereo not drawn) | -5.79
85 | Cc1cc(OCC(=O)N2CCCCC2)c(C(C)C)cc1Cl | -8.37
86 | Cc1ccc(CN(CC(=O)Nc2cccc(Cl)c2)S(=O)(=O)c2ccccc2)cc1 | 0.331
87 | COc1cc(C2C(C#N)=C(SCc3ccccc3)N=C3CCCC(O)=C32)ccc1O (stereo not drawn) | 32
88 | Cc1ccsc1CCNC(=O)c1cc(S(=O)(=O)N2CCOCC2)cn1C | 1.39
89 | O=C(O)C1C2CCC(C2)C1C(=O)Nc1ccccc1F (stereo not drawn) | -1.12
90 | Cc1cc2nc3c(=O)n(Cc4ccccc4)c(=O)[nH]c3nc2cc1N | -4.21
91 | COc1cccc(/C=C2\NC(=O)N(c3cccc(Cl)c3)C2=O)c1O | -3.71
92 | Cc1ccccc1OCCCCN1CCCCC1 | 2.76
93 | Cc1ccc(C)c(Cn2cccc2C2=NCCO2)c1 | -9.23
94 | COc1cc(/C=C/c2ccc([N+](=O)[O-])cc2)ccc1O | -2.51
95 | Cc1ccc2oc3c(c2c1)-c1oc(C)cc1C(C)(c1ccccc1)CC3 (stereo not drawn) | 4.51
96 | CC(=O)Nc1ccc(N2C(=O)c3ccc(C(=O)O)cc3C2=O)cc1 | 0.266
97 | Cc1[nH]c2ccccc2c1SCCNC(=O)Cc1cccc2ccccc12 | -0.972
98 | NC(CC(=O)O)c1cccc2ccccc12 (stereo not drawn) | -0.0267
99 | Cc1ccc(S(=O)(=O)c2nnn3c2nc(N2CCCCCC2)c2sccc23)cc1 | -2.26
